Assay results as given in PubChem BioAssay (Tox21).
This list was built around the results that the source calls inconclusive (neither active nor inactive); the mix of calls is not that of the screen. A potency beside an inconclusive call is a rough fit, not a confirmed value. Calls of active or inactive are those of the source. Unless noted, calls follow the shape of the dose curve; as a rule, active = well fitted curve in the direction sought with a large enough effect in the repeat runs; inconclusive = weak or mixed curves; inactive = no such curve, though single readings can be large; an effect the other way counts as inactive or inconclusive.

system: not listed separately; test: qHTS assay to identify small molecule antagonists of the peroxisome proliferator-activated receptor delta (PPARd) signaling pathway - cell viability counter screen (AID 743213); conditions: PPARd-bla HEK293H viability, CellTiter-Glo luminescence, 17 h; viability change, negative = cytotoxic: at 62 µM (top of the series) unless noted; also: nearly all actives have a fitted effect of over 50% in size
Method in brief: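 Viability counter-screen, qHTS format: PPARd-bla HEK293H, L165041 300 nM final, 17 h compound exposure at 37 C, CellTiter-Glo luminescence after 30 min RT.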
% is scaled to controls: 0 for no effect and ±100 for the full control effect; potency is read from the fitted curve at half-maximal effect; tags tell the direction and shape of the fitted curve or compound fluorescence and quenching.

Structure (SMILES)	viability change, negative = cytotoxic	Potency
CC(C)C[P+](C)(CC(C)C)CC(C)C	inactive: -10.9% [at 80.4 µM]	–
CC/C(C)=N\O[Si](C)(O/N=C(\C)CC)O/N=C(\C)CC	inactive: -5.85% [at 80.4 µM]	–
Cc1ccc([N+](=O)[O-])cc1S(=O)(=O)O	inconclusive: -19% [cytotoxic]	–
CCOc1ccc(NC(C)=O)cc1N	inactive: -0.769% [at 80.4 µM]	–
CC(C)(C)NCC(O)COc1cccc2c1CCC(=O)N2 (centres undefined)	inactive: -14%	–
O=S(=O)(O)CCS	–	inconclusive: 192 nM [cytotoxic, single point] and inactive
COC(C)(C)OC	–	inconclusive: 5.34 µM [cytotoxic, single point]
CC(=O)Nc1cccc(N)c1	inactive: 2.66% [at 80.4 µM]	–
CC(C)(Cc1c[nH]c2ccccc12)NCC(O)COc1ccccc1C#N (centres undefined)	–	inconclusive: 23.7 µM [cytotoxic, partial curve, poor fit]
CCCCNS(=O)(=O)c1ccc(C)cc1	inactive: 17%	–
OCC(CO)n1cnc(-c2ccc(F)cc2)c1-c1ccnc(Oc2ccccc2)n1	inactive: -11.3%	–
CC1(C)O[C@@H]2[C@@H](CO[C@@]3(COS(N)(=O)=O)OC(C)(C)O[C@@H]23)O1	–	inconclusive: 0.298 µM [cytotoxic, single point]
C=CC(C)(CCC=C(C)C)OC=O (centres undefined)	–	inconclusive: 12.3 µM [cytotoxic, single point]
C=CC(C)(O)CCC=C(C)C (centres undefined)	–	inconclusive: 1.1 µM [cytotoxic, single point]
CCCCCN(CCCOC)C(=O)C(CCC(=O)O)NC(=O)c1ccc(Cl)c(Cl)c1 (centres undefined)	inactive: -1.73%	–
CC[C@@H](CO)NCCN[C@@H](CC)CO	–	inconclusive: 0.0133 µM [cytotoxic, full curve, poor fit]

biological target: Peroxisome proliferator-activated receptor delta (Homo sapiens) (UniProt Q03181); test: qHTS assay to identify small molecule antagonists of the peroxisome proliferator-activated receptor delta (PPARd) signaling pathway (AID 743215; active = well fitted inhibition curve with a large enough effect in the signal ratio in the repeat runs, not every such curve was filed as active; inconclusive = weak or mixed curves, or effect the other way; inactive = no such curve, though single readings can be large or run the other way; the % refers to the signal ratio;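 also: cells stimulated with agonist L165041 at 300 nM final during compound exposure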); conditions: HEK293H PPARd-UAS-bla, beta-lactamase FRET ratio, antagonist, 17 h; ratio activity, negative = inhibition: at 62 µM (top of the series) unless noted
Method in brief: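 Inhibition of L165041-driven (300 nM final) PPARd signaling is scored in HEK293H UAS-bla cells. Exposure lasts 17 h at 37 C; beta-lactamase activity is then read by FRET substrate fluorescence after 2 h at room temperature.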

Sequence of UniProt Q03181 (Q03181 whole entry, looked up): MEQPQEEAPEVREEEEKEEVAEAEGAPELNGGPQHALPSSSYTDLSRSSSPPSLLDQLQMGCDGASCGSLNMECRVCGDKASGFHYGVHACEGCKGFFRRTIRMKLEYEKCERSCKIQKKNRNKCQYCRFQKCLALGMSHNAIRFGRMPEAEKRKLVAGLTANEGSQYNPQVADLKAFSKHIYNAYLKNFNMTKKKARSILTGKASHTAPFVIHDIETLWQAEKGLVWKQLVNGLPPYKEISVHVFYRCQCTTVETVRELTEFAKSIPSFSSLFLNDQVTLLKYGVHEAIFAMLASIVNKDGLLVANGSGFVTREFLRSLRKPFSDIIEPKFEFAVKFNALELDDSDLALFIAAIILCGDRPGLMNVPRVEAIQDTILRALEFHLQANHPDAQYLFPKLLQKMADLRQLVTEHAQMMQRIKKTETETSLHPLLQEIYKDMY

Structure (SMILES)	ratio activity, negative = inhibition	Potency
CC(C)=O	inconclusive: -11.3%	–
CCCCCCCCCCCCSC	inconclusive: -3.81%	–
Cc1ccc([N+](=O)[O-])cc1S(=O)(=O)O	inconclusive: -10.7% [fluorescent]	–
O=C(O)c1cc(-c2ccccc2)nc2ccccc12	–	inconclusive: 0.0099 µM [fluorescent, full curve, poor fit]
C[Si](O[Si](C)(C)C)O[Si](C)(C)C	–	inactive
CC1(C)[C@@H]2CC[C@@]1(C)[C@H](O)C2	inactive: 25.1%	–
O=S(=O)(O)CCS	–	inconclusive: 60.8 µM [fluorescent]
CCCC(=O)OCCc1ccccc1	inactive: 2.3%	–
COC(C)(C)OC	–	inconclusive: 0.672 µM [fluorescent, full curve, poor fit]
COc1cc(NS(=O)(=O)c2ccc(N)cc2)nc(OC)n1	inactive: -9.55%	–
O=C(c1ccccc1)C1CCC1	–	inconclusive: 54.9 µM [cytotoxic, single point]
CCCCOCCOCCOC(=O)CCCCC(=O)OCCOCCOCCCC	–	inconclusive: 55.1 µM [fluorescent, partial curve, poor fit]
OCC(CO)n1cnc(-c2ccc(F)cc2)c1-c1ccnc(Oc2ccccc2)n1	inactive: -20.6%	–
Oc1ccc(OCc2ccccc2)cc1	inconclusive: -1.18%	–
COc1ccc(/C=C/S(=O)(=O)NC(=O)c2ccc(C)cc2Cl)cc1	inactive: 3.03%	–
O=C(C(Cl)Cl)N1CCOC12CCCCC2	inconclusive: 4.24%	–
CS(=O)(=O)c1ccc([C@@H](O)[C@@H](CO)NC(=O)C(Cl)Cl)cc1	–	inactive
CCCCCN(CCCOC)C(=O)C(CCC(=O)O)NC(=O)c1ccc(Cl)c(Cl)c1 (centres undefined)	inactive: -4.72%	–
CC[C@@H](CO)NCCN[C@@H](CC)CO	inconclusive: 11.3%	–
CCCCNC(N)=O	–	inconclusive: 12.2 µM [rising, partial curve, poor fit]

biological target: Bile acid receptor (Homo sapiens) (UniProt Q96RI1); test: qHTS assay to identify small molecule antagonists of the farnesoid-X-receptor (FXR) signaling pathway (AID 743217; active = well fitted inhibition curve with a large enough effect in the signal ratio in the repeat runs, not every such curve was filed as active; inconclusive = weak or mixed curves, or effect the other way; inactive = no such curve, though single readings can be large or run the other way; the % refers to the signal ratio); conditions: HEK293T FXR-UAS-bla, beta-lactamase ratio, CDCA-stimulated, 16 h; activity change, negative = inhibition: at 62.6 µM (top of the series) unless noted
Method in brief: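 Antagonist mode against 50 uM (final) chenodeoxycholic acid stimulation in FXR-bla HEK 293T cells, 16 h at 37 °C. Inhibition detected as reduced beta-lactamase activity via LiveBLAzer B/G FRET fluorescence after 2 h at room temperature.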

Sequence of UniProt Q96RI1 (Q96RI1 whole entry, looked up): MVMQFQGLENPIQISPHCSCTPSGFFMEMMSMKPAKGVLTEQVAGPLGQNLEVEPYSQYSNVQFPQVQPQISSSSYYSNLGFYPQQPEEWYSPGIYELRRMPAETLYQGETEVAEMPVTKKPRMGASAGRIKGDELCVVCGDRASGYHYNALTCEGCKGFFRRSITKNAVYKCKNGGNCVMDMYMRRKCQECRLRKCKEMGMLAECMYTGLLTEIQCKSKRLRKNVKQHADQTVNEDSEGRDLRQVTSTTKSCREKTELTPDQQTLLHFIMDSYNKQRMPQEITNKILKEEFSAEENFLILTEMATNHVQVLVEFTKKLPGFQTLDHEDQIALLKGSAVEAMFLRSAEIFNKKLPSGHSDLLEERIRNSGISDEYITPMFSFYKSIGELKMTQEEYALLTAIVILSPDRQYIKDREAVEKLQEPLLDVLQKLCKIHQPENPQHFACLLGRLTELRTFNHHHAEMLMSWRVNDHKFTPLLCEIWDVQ

Structure (SMILES)	activity change, negative = inhibition	Potency
CCCCCCCCCCCCSC	inconclusive: -8.13%	–
O=C(O)c1cc2ccccc2nc1C(=O)O	inactive: -2.57%	–
O=C(O)c1cc(-c2ccccc2)nc2ccccc12	inconclusive: 12.2% [at 81.1 µM]	–
CC(=O)Oc1cccc(O)c1	inactive: 0.0985%	–
CC(=O)Nc1cccc(N)c1	–	inconclusive: 55.7 µM [inhibitor, single point]
CCCCOCCOCCOC(=O)CCCCC(=O)OCCOCCOCCCC	inconclusive: -3.2%	–
CCN(CC)CCNC(=O)c1cc(Cl)c(N)cc1OC	inactive: -2.97%	–
BrCCOc1ccccc1	inactive: -0.264% [at 81.1 µM]	–
COc1ccc(/C=C/S(=O)(=O)NC(=O)c2ccc(C)cc2Cl)cc1	inactive: 13.3%	–
O=C(C(Cl)Cl)N1CCOC12CCCCC2	inactive: -9.19%	–
OC[C@H]1O[C@H](O[C@H]2O[C@H](CO)[C@@H](O)[C@H](O)[C@H]2O)[C@H](O)[C@@H](O)[C@@H]1O	inactive: 3.77% [at 81.1 µM]	–
C=CC(C)(O)CCC=C(C)C (centres undefined)	–	inactive
CCCCNC(N)=O	–	inactive

system: not listed separately; test: qHTS assay to identify small molecule agonists of the farnesoid-X-receptor (FXR) signaling pathway - cell viability counter screen (AID 743218); conditions: FXR-bla HEK293T viability, CellTiter-Glo luminescence, 16 h; viability change, negative = cytotoxic: at 62.6 µM (top of the series) unless noted; also: nearly all actives have a fitted effect of over 45% in size
Method in brief: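 Cytotoxicity counter-screen run in parallel, same wells: FXR-UAS-bla HEK 293T cells dosed 16 h at 37 C, viability read by CellTiter-Glo luminescence after 30 min at room temperature.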

Structure (SMILES)	viability change, negative = cytotoxic	Potency
CC(C)=O	inconclusive: 37.1%	–
O=C(O)c1cc2ccccc2nc1C(=O)O	inactive: -6.41%	–
CCOC(=O)CC(O)(CC(=O)OCC)C(=O)OCC	inactive: -8.85%	–
O=C(O)c1cc(-c2ccccc2)nc2ccccc12	inconclusive: -17.4% [cytotoxic] [at 81.1 µM]	–
CC(C)(C)NCC(O)COc1cccc2c1CCC(=O)N2 (centres undefined)	inactive: 1.74%	–
CC1(C)[C@@H]2CC[C@@]1(C)[C@H](O)C2	inactive: 2.42%	–
CC(=O)Nc1cccc(N)c1	inactive: -1.25% [at 81.1 µM]	–
CC(C)(Cc1c[nH]c2ccccc12)NCC(O)COc1ccccc1C#N (centres undefined)	–	inconclusive: 26.6 µM [cytotoxic, partial curve]
O=C(c1ccccc1)C1CCC1	inactive: -0.504%	–
O=[N+]([O-])c1ccc(Cl)cc1Cl	inactive: 9.83%	–
Oc1ccc(OCc2ccccc2)cc1	–	inactive
C=CC(C)(CCC=C(C)C)OC=O (centres undefined)	inactive: 5.68%	–
O=C(C(Cl)Cl)N1CCOC12CCCCC2	inactive: 7.53%	–
CS(=O)(=O)c1ccc([C@@H](O)[C@@H](CO)NC(=O)C(Cl)Cl)cc1	–	inactive
CCCCCN(CCCOC)C(=O)C(CCC(=O)O)NC(=O)c1ccc(Cl)c(Cl)c1 (centres undefined)	–	inconclusive: 0.0033 µM [rising, full curve, poor fit]
